Source: the supplement of paper PMC8728848
This is one part of the list.

How the values were obtained:
Assay in all cases: glycan array binding signal (z-score within array); higher = stronger binding
Conditions in all cases: glycan notation: IUPAC condensed, linker removed
[1] = target: Neu5Ac(a2-6)Gal(b1-4)GlcNAc(b1-2)Man(a1-3)[GlcNAc(b1-4)][Neu5Ac(a2-6)Gal(b1-4)GlcNAc(b1-2)Man(a1-6)]Man(b1-4)GlcNAc(b1-4)GlcNAc
Summary of the method: (§1)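 Negative Z-scores can be read as non-binding. The Z-score is calculated within each array and then averaged across arrays of one protein sequence at different concentrations or buffers and across linkers. Arrays, 3228 in all, were curated from the Consortium for Functional Glycomics database and kept only where the protein sequence was available.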

[2] = target: Neu5Ac(a2-6)Gal(b1-4)GlcNAc(b1-2)Man(a1-3)[Man(a1-6)]Man(b1-4)GlcNAc(b1-4)GlcNAc
Summary of the method: as §1

[3] = target: Neu5Ac(a2-6)Gal(b1-4)GlcNAc(b1-2)Man(a1-3)[Neu5Ac(a2-3)Gal(b1-4)GlcNAc(b1-2)Man(a1-6)]Man(b1-4)GlcNAc(b1-4)GlcNAc
Summary of the method: as §1

[4] = target: Neu5Ac(a2-6)Gal(b1-4)GlcNAc(b1-2)Man(a1-3)[Neu5Ac(a2-6)Gal(b1-4)GlcNAc(b1-2)Man(a1-6)]Man(b1-4)GlcNAc(b1-4)GlcNAc
Summary of the method: as §1

[5] = target: Neu5Ac(a2-6)Gal(b1-4)GlcNAc(b1-2)Man(a1-3)[Neu5Ac(a2-6)Gal(b1-4)GlcNAc(b1-2)Man(a1-6)]Man(b1-4)GlcNAc(b1-4)[Fuc(a1-6)]GlcNAc
Summary of the method: as §1

[6] = target: Neu5Ac(a2-6)Gal(b1-4)GlcNAc(b1-2)Man(a1-6)Man(b1-4)GlcNAc(b1-4)GlcNAc
Summary of the method: as §1

[7] = target: Neu5Ac(a2-6)Gal(b1-4)GlcNAc(b1-2)Man(a1-6)[Gal(b1-4)GlcNAc(b1-2)Man(a1-3)]Man(b1-4)GlcNAc(b1-4)GlcNAc
Summary of the method: as §1

[8] = target: Neu5Ac(a2-6)Gal(b1-4)GlcNAc(b1-2)Man(a1-6)[GlcNAc(b1-2)Man(a1-3)]Man(b1-4)GlcNAc(b1-4)GlcNAc
Summary of the method: as §1

[9] = target: Neu5Ac(a2-6)Gal(b1-4)GlcNAc(b1-2)Man(a1-6)[Man(a1-3)]Man(b1-4)GlcNAc(b1-4)GlcNAc
Summary of the method: as §1

[10] = target: Neu5Ac(a2-6)Gal(b1-4)GlcNAc(b1-2)[Neu5Ac(a2-6)Gal(b1-4)GlcNAc(b1-4)]Man(a1-3)[GlcNAc(b1-4)][Neu5Ac(a2-6)Gal(b1-4)GlcNAc(b1-2)[Neu5Ac(a2-6)Gal(b1-4)GlcNAc(b1-6)]Man(a1-6)]Man(b1-4)GlcNAc(b1-4)GlcNAc
Summary of the method: as §1

[11] = target: Neu5Ac(a2-6)Gal(b1-4)GlcNAc(b1-2)[Neu5Ac(a2-6)Gal(b1-4)GlcNAc(b1-4)]Man(a1-3)[GlcNAc(b1-4)][Neu5Ac(a2-6)Gal(b1-4)GlcNAc(b1-4)Man(a1-6)]Man(b1-4)GlcNAc(b1-4)GlcNAc
Summary of the method: as §1

[12] = target: Neu5Ac(a2-6)Gal(b1-4)GlcNAc(b1-2)[Neu5Ac(a2-6)Gal(b1-4)GlcNAc(b1-6)]Man(a1-6)[Neu5Ac(a2-6)Gal(b1-4)GlcNAc(b1-2)Man(a1-3)][GlcNAc(b1-4)]Man(b1-4)GlcNAc(b1-4)GlcNAc
Summary of the method: as §1

[13] = target: Neu5Ac(a2-6)Gal(b1-4)GlcNAc(b1-3)Gal(b1-3)GlcNAc
Summary of the method: as §1

[14] = target: Neu5Ac(a2-6)Gal(b1-4)GlcNAc(b1-3)Gal(b1-4)GlcNAc
Summary of the method: as §1

[15] = target: Neu5Ac(a2-6)Gal(b1-4)GlcNAc(b1-3)Gal(b1-4)GlcNAc(b1-2)Man(a1-3)[Neu5Ac(a2-6)Gal(b1-4)GlcNAc(b1-3)Gal(b1-4)GlcNAc(b1-2)Man(a1-6)]GalNAc
Summary of the method: as §1

[16] = target: Neu5Ac(a2-6)Gal(b1-4)GlcNAc(b1-3)Gal(b1-4)GlcNAc(b1-3)Gal(b1-4)GlcNAc
Summary of the method: as §1

[17] = target: Neu5Ac(a2-6)Gal(b1-4)GlcNAc(b1-3)Gal(b1-4)GlcNAc(b1-3)Gal(b1-4)GlcNAc(b1-2)Man(a1-3)[Neu5Ac(a2-6)Gal(b1-4)GlcNAc(b1-3)Gal(b1-4)GlcNAc(b1-3)Gal(b1-4)GlcNAc(b1-2)Man(a1-6)]GalNAc
Summary of the method: as §1

[18] = target: Neu5Ac(a2-6)Gal(b1-4)GlcNAc(b1-3)Gal(b1-4)GlcNAc(b1-3)GalNAc
Summary of the method: as §1

[19] = target: Neu5Ac(a2-6)Gal(b1-4)GlcNAc(b1-3)Gal(b1-4)GlcNAc(b1-3)[Neu5Ac(a2-6)Gal(b1-4)GlcNAc(b1-3)Gal(b1-4)GlcNAc(b1-6)]GalNAc
Summary of the method: as §1

[20] = target: Neu5Ac(a2-6)Gal(b1-4)GlcNAc(b1-3)Gal(b1-4)GlcNAc(b1-6)[Gal(b1-3)]GalNAc
Summary of the method: as §1

[21] = target: Neu5Ac(a2-6)Gal(b1-4)GlcNAc(b1-3)Gal(b1-4)[Fuc(a1-3)]GlcNAc(b1-3)Gal(b1-4)[Fuc(a1-3)]GlcNAc
Summary of the method: as §1

[22] = target: Neu5Ac(a2-6)Gal(b1-4)GlcNAc(b1-3)GalNAc
Summary of the method: as §1

[23] = target: Neu5Ac(a2-6)Gal(b1-4)GlcNAc(b1-3)[Neu5Ac(a2-6)Gal(b1-4)GlcNAc(b1-6)]GalNAc
Summary of the method: as §1

[24] = target: Neu5Ac(a2-6)Gal(b1-4)GlcNAc(b1-6)GalNAc
Summary of the method: as §1

[25] = target: Neu5Ac(a2-6)Gal(b1-4)GlcNAc(b1-6)[Gal(b1-3)GlcNAc(b1-3)]Gal(b1-4)Glc
Summary of the method: as §1

[26] = target: Neu5Ac(a2-6)Gal(b1-4)GlcNAc(b1-6)[Gal(b1-3)]GalNAc
Summary of the method: as §1

[27] = target: Neu5Ac(a2-6)Gal(b1-4)GlcNAc6S
Summary of the method: as §1

[28] = target: Neu5Ac(a2-6)GalNAc
Summary of the method: as §1

[29] = target: Neu5Ac(a2-6)GalNAc(b1-4)GlcNAc
Summary of the method: as §1

[30] = target: Neu5Ac(a2-6)GalNAc(b1-4)GlcNAc6S
Summary of the method: as §1

[31] = target: Neu5Ac(a2-6)GlcNAc(b1-4)GlcNAc
Summary of the method: as §1

B1: CvGal2 (Crassostrea virginica) (protein)
chain: MGSSHHHHHHSSGLVPRGSHMRIREAGKRKDTTKVYQIPDGLFPGQQVMLRGRVPWGSKSFSINFSATPRMGEGDILFHLNPRPSEGVCIRNALLNGSWGAEEKWQPYFPFDDGRSFSVKIEVTNDAFRTFVNGRPFVDFLHRTDFRAGKYLTLREGAEYYDVIFQSKPNIPLTTAIHNGMRIGKTIRIRGMCTAQDGFAINFNDNRNNIYFHFNARPAQRTVVRNSYFGSWGNEETAISKEFPFYPFLYFYASFVCMEDKFAVYVNDEHFIDFAHRGNPNNISVLQIKGSVNVLDTECLEPMGEDAMTEVDSGLENGDLFVLNGLMTERGKTFAVNFLNGFTENDDIALHFNPRKSTGEVVLNSRYGGAWQSEEKVALPGVFWSNRPLQVKVETKRNKFKIYVNGVDLAKYKIRGNVEDVHAVQVKGDVFLLETLLLKRLMKPVWERLTGGIRPGTWVTLQGTPKKNWQQFVVNFALDDTLDGDIAFHFNVRRGARQVVRNHRQSGAWGREETVTPFFAFDSEATFEIVFFVKEEKFLIYFNGKLFFEFVHRVPVERITHIYMDGDCNFYEPEVVI
glycan array binding signal (z-score) [1]: -0.325
glycan array binding signal (z-score) [2]: -0.324
glycan array binding signal (z-score) [3]: -0.329
glycan array binding signal (z-score) [4]: -0.305
glycan array binding signal (z-score) [5]: -0.331
glycan array binding signal (z-score) [6]: -0.343
glycan array binding signal (z-score) [7]: -0.343
glycan array binding signal (z-score) [8]: -0.332
glycan array binding signal (z-score) [9]: -0.334
glycan array binding signal (z-score) [10]: -0.336
glycan array binding signal (z-score) [11]: -0.334
glycan array binding signal (z-score) [12]: -0.326
glycan array binding signal (z-score) [13]: -0.282
glycan array binding signal (z-score) [14]: -0.332
glycan array binding signal (z-score) [15]: -0.313
glycan array binding signal (z-score) [16]: -0.322
glycan array binding signal (z-score) [17]: -0.317
glycan array binding signal (z-score) [18]: -0.333
glycan array binding signal (z-score) [19]: -0.323
glycan array binding signal (z-score) [20]: -0.327
glycan array binding signal (z-score) [21]: -0.321
glycan array binding signal (z-score) [22]: -0.329
glycan array binding signal (z-score) [23]: -0.341
glycan array binding signal (z-score) [24]: -0.339
glycan array binding signal (z-score) [25]: -0.133
glycan array binding signal (z-score) [26]: -0.324
glycan array binding signal (z-score) [27]: -0.331
glycan array binding signal (z-score) [28]: -0.347
glycan array binding signal (z-score) [29]: -0.341
glycan array binding signal (z-score) [30]: -0.331
glycan array binding signal (z-score) [31]: -0.336
